Data published in PubChem BioAssay AID1159614 (National Center for Advancing Translational Sciences (NCATS), 2016).
Hit rate of the full screen: of about 45,000 compounds, about 65 (0.1%) were called active. The call rests on the fitted dose curve; in most records, active means well fitted activation curve with a large enough effect; inconclusive means small, poorly fitted or top-dose-only effect; inactive means no such curve, though single readings can be large or run the other way. The list shows a part of the results.

Biological target: Galactocerebrosidase (Homo sapiens) (UniProt P54803)
Assay: A Novel Cell-Based Assay to Identify Small Molecules for B -Galactocerebrosidase; further: 0% is about no effect; nearly all actives have a fitted effect of over 65% in size
Details: 145M-Twi-hGALC-G270D cells (Twitcher mouse brain line with human GALC G270D), HMU-beta-Gal fluorescence, 48 h; series mostly up to 57.5 µM; activation: at the top concentration
Summary of the method: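 Fluorescence readout: HMU-β-gal cleavage by mutant GALC (0.1 mM final, citrate/phosphate pH 5.2 with 1 mg/mL taurocholate), stopped with carbonate/bicarbonate plus Triton X-100. Cells: murine Twitcher 145M-Twi expressing human G270D GALC; qHTS for activators.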

Chain of UniProt P54803 (P54803 whole entry, looked up): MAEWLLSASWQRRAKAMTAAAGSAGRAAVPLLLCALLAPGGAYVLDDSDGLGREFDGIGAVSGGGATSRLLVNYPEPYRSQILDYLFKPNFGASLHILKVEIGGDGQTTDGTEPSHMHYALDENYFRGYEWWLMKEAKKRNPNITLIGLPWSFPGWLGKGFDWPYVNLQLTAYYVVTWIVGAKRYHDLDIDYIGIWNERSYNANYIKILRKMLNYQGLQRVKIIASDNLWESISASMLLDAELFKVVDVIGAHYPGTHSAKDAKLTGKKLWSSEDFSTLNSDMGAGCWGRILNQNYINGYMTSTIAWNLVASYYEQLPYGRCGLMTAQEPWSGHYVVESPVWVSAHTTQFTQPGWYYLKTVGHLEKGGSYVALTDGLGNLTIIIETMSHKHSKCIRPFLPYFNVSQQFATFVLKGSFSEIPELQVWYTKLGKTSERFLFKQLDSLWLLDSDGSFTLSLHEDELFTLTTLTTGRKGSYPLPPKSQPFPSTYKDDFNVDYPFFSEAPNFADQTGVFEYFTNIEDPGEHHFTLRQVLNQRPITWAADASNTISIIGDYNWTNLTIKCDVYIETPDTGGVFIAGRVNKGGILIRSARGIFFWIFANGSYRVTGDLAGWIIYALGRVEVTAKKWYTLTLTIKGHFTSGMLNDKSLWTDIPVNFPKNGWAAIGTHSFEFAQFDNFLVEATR

activation, inactive:
Cc1ccc(NC(=O)c2oc3ccc(S(=O)(=O)N(C)C4CCCCC4)cc3c2C)cc1Cl -4.26%
O=S(=O)(c1cccc(F)c1)N1CCC(c2nc3ccccc3s2)CC1 -31.7%
COCCNC(=O)CCCN1C(=O)c2ccccc2Sc2ncccc21 -7.98%
Cc1nnc(SCC(=O)Nc2ccc(Br)cc2)[nH]c1=O 2.75%
COc1cccc(-c2nc(CSCC(=O)NCCc3ccc(Cl)cc3)c(C)o2)c1 -2.3%
CC(=O)N1CCc2cc(S(=O)(=O)NC(CC(C)C)C(=O)NCc3ccccc3)ccc21 (configuration not stated) -11.4%
O=c1c(=O)n(-c2cccc(Cl)c2)ccn1Cc1cccc(F)c1 6.22%
COc1cccc2c1cc1c(=O)n(CC(=O)NC3CC3)nc(C)n12 -17.4%
CCOC(=O)c1cc(-c2ccccc2)n(CC(=O)N(C)c2ccc(OC)cc2)c1C -19.5%
CCOc1ccc(NC(=O)C(NC(=O)C2CCC(C)CC2)C(C)C)cc1 (configuration not stated) -16.5%
CCCCC(CC)CNC(=O)CCCn1c(=O)[nH]c2ccsc2c1=O (configuration not stated) 1.4%
Cc1ccc(-c2nc(N3CCN(c4ccccc4Cl)CC3)c3ccccc3n2)cc1 -11.6%
COc1cc(-c2nc(Cn3nnc(C(=O)Nc4cc(C)cc(C)c4)c3C)c(C)o2)cc(OC)c1OC -0.386%
COc1ccc(C)cc1Nc1nc(-c2cccc(Cl)c2)c2c(n1)-c1ccccc1OC2 0.579%
CO[C@@H]1[C@@H](OC(N)=O)[C@@H](O)[C@H](Oc2ccc3c(O)c(NC(=O)c4ccc(O)c(CC=C(C)C)c4)c(=O)oc3c2C)OC1(C)C -16.7%
CCCCc1nc2ccccc2n2c(-c3ccc(C)cc3)c3c(=O)n(C)c(=O)n(C)c3c12 -16.3%
Nc1c(-c2nc(-c3ccc(Cl)cc3)cs2)c2ccccn2c1C(=O)c1ccc2c(c1)OCO2 -1.01%
Cc1c(C)n(Cc2ccc(Cl)cc2)c2ccc(C(=O)NCCc3ccc(S(N)(=O)=O)cc3)cc12 0.183%
COCCCNC(=O)c1cc2c(=O)n3cccc(C)c3nc2s1 -6.19%
Cc1cc(N2CCCCC2)nc2ccc(NC(=O)c3cccc(F)c3)cc12 -8.51%
CSc1cccc(NC(=O)CN(c2ccccc2)S(=O)(=O)N(C)C)c1 -14%
CC1CCN(S(=O)(=O)c2ccc3c(c2)N(CC(=O)NC(C)c2ccccc2)C(=O)CO3)CC1 (configuration not stated) -5.6%
CCOc1ccc(Nc2nc3ccccc3n3c(CC)nnc23)cc1 -11.1%
CCCN1CCN(CCCNC(=O)c2cnn(-c3ccc(F)cc3)c2-n2cccc2)CC1 -1.93%
O=S(=O)(c1cccc(C(F)(F)F)c1)n1c(/C=C/c2ccccc2)nc2ccccc21 -18.5%
O=C(Cn1c(=O)n(-c2ccccc2)c(=O)c2sc3ccccc3c21)N1CCCC1 -15.7%
CCCc1nnc(NC(=O)Cc2coc3cc(C)cc(C)c23)s1 -9.83%
Cc1ccc(C(=O)N2CCc3cc(CNC(=O)COc4ccccc4)ccc32)cc1 -12.8%
Cc1ccc2oc(=O)c3cnn(CC(=O)Nc4cccc(C(F)(F)F)c4)c3c2c1 -20.6%
COc1ccc(CCNC(=O)c2nnc(Cc3ccc(Cl)cc3)o2)cc1OC -11.8%
O=C(NCC(c1ccco1)S(=O)(=O)c1ccc(Cl)cc1)c1ccccc1F (configuration not stated) -13.1%
COc1ccc(-c2nn3c(=O)cc(CN4CCN(C(=O)Nc5ccc(C)c(Cl)c5)CC4)nc3s2)cc1 -17.4%
CC(C)c1ccc(NC(=O)CN2C(=O)COc3ccc(S(=O)(=O)Nc4ccccc4)cc32)cc1 -36.4%
O=[N+]([O-])c1cc(-c2nc(-c3cccnc3)no2)ccc1NCc1ccccc1 -5.54%
CC(C)OCCCNC(=O)CCCn1c(SCC(=O)c2ccc(F)cc2)nc2c(sc3ccccc32)c1=O -2.9%
O=C(Nc1ccc(Br)cc1)C1CCN(S(=O)(=O)c2cccc3nsnc23)CC1 -8.9%
Cc1c(C(=O)NCc2ccccc2)sc2nc3n(c(=O)c12)CCC3 -11.7%
CCCOC(=O)c1ccc(NC(=O)Cc2csc(C)n2)cc1 -3.73%
Cc1ccc(NS(=O)(=O)c2ccc3[nH]c4c(c3c2)CCCCCC4)cc1Cl -33.8%
COCC(=O)N1c2nc(C(C)C)nn2C2(CCCCC2)[C@@H]2CCCC[C@@H]21 9.5%
CSc1nc2sc3c(c2c(=O)n1-c1ccccc1C)CCCC3 -10.8%
CCC(=O)N1CCc2cc(Br)cc(S(=O)(=O)NCc3ccc(Cl)cc3)c21 6.68%
Cc1cccc(N2C(=O)CSC23C(=O)N(Cc2cccc(C(F)(F)F)c2)c2ccccc23)c1 (configuration not stated) -25%
CCN(c1ccccc1)c1nnc(NC(=O)Nc2cccc(Br)c2)s1 -8.51%
O=C1CC(c2nc3ccccc3n2CCCOc2ccccc2)CN1c1ccc(F)cc1 (configuration not stated) -36.6%
Cc1cc(C)cc(-n2ccn(CC(=O)Nc3ccccc3C(F)(F)F)c(=O)c2=O)c1 -12%
CN(C)CCNC(=O)CCCN1C(=O)c2cccnc2Oc2ccc(Cl)cc21 -12.9%
Cc1ccc(N2CC(C)Cn3c2nc2c3c(=O)n(CC(=O)O)c(=O)n2C)cc1 (configuration not stated) -8.62%
C=Cc1ccc(CSc2nc(-c3ccccc3Cl)nc3c2Cc2c(CO)cnc(C)c2O3)cc1 -8.39%
Cc1nc(N2CCCC2)c2c(C(=O)N3CCN(c4cccc(Cl)c4)CC3)c(C)oc2n1 -6.21%
COc1ccc(N2CCN(C(=O)c3ccc(CS(=O)(=O)c4ccc(Br)cc4)o3)CC2)cc1 -8.94%
CCOc1ccc(C2c3c(oc4ccc(C)cc4c3=O)C(=O)N2Cc2ccc3c(c2)OCO3)cc1OC (configuration not stated) -17.7%
Cc1ccc(CNC(=O)c2ccc(CSCc3ccc(C)cc3)o2)cc1 3.04%
COCCCNC(=O)CSc1c2c(nc3ccc(Cl)cc13)CCCC2 -3.75%
CCN(c1ccc(OC)cc1)S(=O)(=O)c1nnc(NC(=O)c2ccccc2Cl)s1 -7.94%
Cc1ccc(OCC(=O)Nc2ccc3nc(SCC(=O)N4CCCC4)sc3c2)cc1 -13%
CNC(=O)c1ccc2c(c1)N=C(C)c1cc(C)ccc1S2 -15.9%
O=C(CSc1nc2cc(C(=O)NC3CCCC3)ccc2c(=O)n1CC1CCCO1)c1ccc(F)cc1 (configuration not stated) -12.7%
COc1cc(OC)c(NC(=O)CSc2nccn2C)cc1Cl -22.1%
COc1ccc2oc(-c3ccc(C)c(NC(=O)c4cccnc4)c3)nc2c1 -19.2%
Cc1ccc(CNC(=O)c2ccc(-n3c(C)cc4c3CCCC4)cc2)cc1 -17.4%
CC1CCN(c2oc(-c3cccs3)nc2S(=O)(=O)c2ccc(Cl)cc2)CC1 -20.5%
Cc1cccc(CSc2cn(CC(=O)N3CCCCC3)c3ccccc23)c1 -34.4%
Cc1cc(C)c2sc(N(Cc3cccnc3)C(=O)CCS(=O)(=O)c3ccccc3)nc2c1 -5.33%
CC(C)(C)C1CCc2oc3ccc(NS(=O)(=O)c4cc(Cl)ccc4Cl)cc3c2C1 (configuration not stated) -11.5%
O=C(Cn1cc(SCc2cccc(F)c2)c2ccccc21)N1CCOCC1 -6.91%
CCCC(=O)OC1=CN(Cc2ccccc2)S(=O)(=O)c2ccccc21 -10.2%
CCOC(=O)c1c(SCC(=O)Nc2nc3ccc(C)cc3s2)nc(=O)[nH]c1C -4%
CCC(=O)N1N=C(c2ccc(OC)cc2)CC1c1cn(-c2ccccc2)nc1-c1cccs1 (configuration not stated) -10.6%
O=C(c1cc(-c2ccc(Br)cc2)n[nH]1)N1CCN(S(=O)(=O)c2ccc(Br)cc2)CC1 -12.1%
CN(C)C(=N)N=C(N)N -13%
COC(=O)CSc1nc2c(cnn2-c2ccc(F)cc2)c(=O)[nH]1 -13.9%
CCOc1ccc(N(c2nc(-c3ccc(OC)c(OC)c3)no2)c2nc(-c3ccc(OC)c(OC)c3)no2)cc1 -7.74%
CC(=O)N1c2ccc(S(=O)(=O)N3CCN(c4ccc(C)cc4C)CC3)cc2CC1C (configuration not stated) -2.18%
O=C(Cn1ccn(-c2ccc(F)cc2)c(=O)c1=O)NCCc1ccccc1 -8.99%
CCOC(=O)c1cnc2ccc(C)cc2c1Nc1ccc(OCc2ccccc2Cl)cc1 -16.1%
COc1ccccc1N(CC(=O)NCCSCc1ccccc1Cl)S(C)(=O)=O -2.23%
CCc1ccccc1NC(=O)Cn1ncc2c(C)n(Cc3ccccc3F)c(C)c2c1=O -9.5%
CC(C)CNC(=O)CCSc1nc(-c2ccc3c(c2)OCO3)cc(C(F)(F)F)n1 -4.08%
CCc1ccc(NC(=O)CC2C(=O)OCCN2CC)cc1 (configuration not stated) 7.15%
CCOc1ccccc1NC(=O)C(CC(C)C)NS(=O)(=O)c1ccc2c(c1)CCN2C(C)=O (configuration not stated) -13.5%
CCOC(=O)c1ccc(N2C(=O)c3n[nH]c(-c4cccs4)c3C2c2cccc(F)c2)cc1 (configuration not stated) -12.2%
Cc1oc(-c2cccc(Br)c2)nc1CN1CCC(C(=O)NCCc2ccc(Cl)cc2)CC1 -16.6%
CC(C)[C@H](N)C(=O)OCCOCn1cnc2c(=O)[nH]c(N)nc21 -14%
O=C(Cn1c(=O)n(Cc2nc(-c3ccccc3)no2)c(=O)c2cc3c(cc21)OCO3)Nc1ccc(Cl)cc1 -11.6%
Cc1ccc(C)c(N2CCN(c3ccc(NC(=O)c4cccs4)cc3C(=O)O)CC2)c1 -8.09%
CN(C)c1ccc(NC(=O)CCSc2nc(-c3ccco3)cc(C(F)(F)F)n2)cc1 -25%
CCCCN(C)S(=O)(=O)c1cc(-c2nnc3c4ccccc4c(C)nn23)ccc1C -3.6%
CCOc1ccc(-n2c(=O)c3c(C)c(C)sc3n(CC(=O)c3ccccc3)c2=O)cc1 -19.1%
CCc1ccc(-n2nc(C)c3c(C)cc(=O)n(CC(=O)Nc4ccc(C)c(F)c4)c32)cc1 -4.5%
CCN(CC)CCCNC(=O)c1c(C)oc2ncn(CC(C)C)c(=O)c12 1.81%
COc1cc(Br)c(C2CC(=O)Nc3cc(OC)c(OC)c(OC)c32)cc1OC (configuration not stated) -8.82%
CC1CCc2c(sc(NC(=O)CCCOc3ccc(C(C)(C)C)cc3)c2C(N)=O)C1 (configuration not stated) -4.39%
COc1ccccc1C(=O)CC1(O)C(=O)N(CC(N)=O)c2ccccc21 (configuration not stated) -9.9%
CCc1ccccc1NC(=O)C1=CC(c2ccc3c(c2)OCO3)=NS(=O)(=O)N1C -4.7%
CCOc1ccccc1NC(=O)Cn1c(=O)n(Cc2ccco2)c(=O)c2cccnc21 12.9%
CC(C)(C)c1ccc(C(=O)Nc2ccc3nc(SCC(=O)N4CCCC4)sc3c2)cc1 -19.3%
O=C(CSc1nc(-c2ccccc2)[nH]c1-c1ccc(F)cc1)NC1CCCC1 -15%
COc1ccccc1C(=O)N1CCC(c2c[nH]c3ccccc23)(c2c[nH]c3ccccc23)CC1 -12.4%
CCC(=O)N1CCc2cc(S(=O)(=O)NC(Cc3ccccc3)C(=O)Nc3ccc(Cl)cc3)ccc21 (configuration not stated) -11%
CC(C)c1ccc(S(=O)(=O)Nc2cc3c(cc2NCc2ccccc2)n(C)c(=O)n3C)cc1 -5.95%
CCCC(=O)Nc1c(C(=O)N2CCN(c3ccccc3)CC2)oc2ccccc12 -15.6%
